Consider 44 sequences from the supplement of paper PMC11417369.

This is one part of the list.

The assay deals with PF3D7_0420300 AP2 domain 1 (GST-tagged). The experiment in a line: gcPBM binding intensity (ln(normalized median fluorescence intensity)); higher = stronger DNA binding. In outline:
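GST-fused DNA-binding domains of P. falciparum, expressed in E. coli, were applied at about 25 μg on average for 1 h to an Agilent 4 × 180k array of primer-extended double-stranded 36-bp intergenic genomic probes and negative controls. Binding intensity is the highest Masliner-normalised natural-log median intensity across replicate spots of either probe orientation, measured with Alexa488 anti-GST antibody and a 488 nm scan.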
In the case of “GTAAGTTGTGCATTCACACACATATAAATATAAATA [CACACA_site7536]”, the “gcPBM binding intensity (ln)” value was 9.58.

Consider “CATTATGTTGTAAATGCACACATACAAATACATATA [CACACA_site8380]”, for which the “gcPBM binding intensity (ln)” value turned out to be 9.42. On to “TTATGATATATTTGTTGTACGCTTTTTTTATGAACT [XGTACX_site573]”, for which the “gcPBM binding intensity (ln)” value was found to be 9.51. As to “AATTAAATTACTTATACACACATAAAATGCCTGTAT [CACACA_site6597]”, the “gcPBM binding intensity (ln)” value was determined as 9.5. With “ATGACCCACTTTTCTGCACACATAAAAAATATATAA [CACACA_site8092]”, the “gcPBM binding intensity (ln)” value was 9.56. In the case of “AAAATCTATAATATAACACACATATATTCTATATGG [CACACA_site7821]” it was 9.31; in that of “CATACATACAGACACACACACATATAAATACATACA [CACACA_site6533]”, 10. For “TTCCTGTTAATTACAACACACAATTCTTATTTTATG [CACACA_site6507]”, the “gcPBM binding intensity (ln)” value was determined as 9.58.

Turning to “ATTTTCAAATTCTATGCATGTGTATATTATAGATAA [TGCATGCA_site1003]”, the “gcPBM binding intensity (ln)” value came out at 9.18. In the case of “GCACTCGTAAAAAGCACACATATAAAAACATTTATA [CACACA_site322]” it was 9.19. In the case of “TGAACAGACAAATACACACACTCAAAAAAAAAAAAG [CACACA_site7287]”, the “gcPBM binding intensity (ln)” value stood at 9.75. Regarding “CAATGCTTTATCAATACATGCATATATATAGAAATA [TGCATGCA_site857]”, the “gcPBM binding intensity (ln)” value came to 8.97. With “TTTTTTCTATTGAGCACACATATCACGATTAGTACT [CACACA_site313]”, the “gcPBM binding intensity (ln)” value turned out to be 9.37. Turning to “GCTCAATTTTTGGGTACACACAAATGTATAATAATA [CACACA_site2388]”, the “gcPBM binding intensity (ln)” value was found to be 9.37. Turning to “ATATATATTATTTCTACACACATATATATAATATGT [CACACA_site3374]”, the “gcPBM binding intensity (ln)” value came to 9.71. For the sequence “CAAAGAGAAATAAACACACACAAAATAAAGAAAAAA [CACACA_site2245]”, the “gcPBM binding intensity (ln)” value was found to be 9.74. As for “TTCTTTTTTCAACACACACACACAAGAAAATATATA [CACACA_site9019]”, the “gcPBM binding intensity (ln)” value is 10.

For “AAAAAAAAAAAAAAAACACACATATAGATTTATATA [CACACA_site7196]”, the “gcPBM binding intensity (ln)” value amounted to 9.37. For the sequence “ATATGTGATTTCTAATGTACACAAAAAAAAAAAAAA [XGTACX_site7701]”, the “gcPBM binding intensity (ln)” value was 9. Consider “TCTTCAAACAAAAAAAATAATAAAAAGTACAAAATG [CACACA_negctrl_site363]”, for which the “gcPBM binding intensity (ln)” value turned out to be 9.38. Consider “TTATGTCATAAATGCACACATATATAAATACAGATA [CACACA_site4959]”, for which the “gcPBM binding intensity (ln)” value was determined as 9.29. For “GGGGTATCTTCCTATGCACACTTGTTATGTACTAAC [CACACA_site4610]”, the “gcPBM binding intensity (ln)” value was 9.67.

Consider “TTTTTGTTTTTGTTTTGTACTCATACATACTATCAT [XGTACX_site4210]”, for which the “gcPBM binding intensity (ln)” value was found to be 9.45.

As for “CTTTTATTAAAATTCACACACATAAATTTTTATAAA [CACACA_site1993]”, the “gcPBM binding intensity (ln)” value was 9.18. Consider “ATATATACGTATGAATGTATATTTGTTTGATTTTTT [CACACA_negctrl_site835]”, for which the “gcPBM binding intensity (ln)” value was determined as 9.4. “AATATAAAAAAAAAATGTACATATTATATATATATA [XGTACX_site5113]”: the “gcPBM binding intensity (ln)” value amounted to 9.25. Consider “AAAAATTTTTTTTCATTTGTTTTTATTCCGTAAAAA [CACACA_negctrl_site1217]”, for which the “gcPBM binding intensity (ln)” value worked out at 8.92.

Take “ACCGAAGGAATTTATAGTACACATCATAAATAAATT [XGTACX_site4100]”: the “gcPBM binding intensity (ln)” value stood at 9.13. As to “TATAATATAAAATAATGTACTTTGAAATATGACATA [XGTACX_site3579]”, the “gcPBM binding intensity (ln)” value was determined as 9.06. As to “AGTTTGATTTTTTCTTATAATATATTATTATATATT [CACACA_negctrl_site376]”, the “gcPBM binding intensity (ln)” value turned out to be 9.5. Next, “TTTTTATTAATAGATATAAATATATAATATGAATGT [TGCATGCA_negctrl_site309]”: 9.11; “ATATATATATATATTTGTACAGATTTATATTATAAT [XGTACX_site7612]”: 9.13; “GAAAATTTAATATAGAACGAAAGCATACACATATAT [GTGCAC_negctrl_site424]”: 9.6. Take “CCATATAATATGAACAGTACACACAAAATAAATTCG [XGTACX_site7590]”: the “gcPBM binding intensity (ln)” value was found to be 9.83. Turning to “AAATATTATAGCACCACACACTTATTTTATATATAT [CACACA_site5281]”, the “gcPBM binding intensity (ln)” value was 9.55.

For “AGATATTTCATTTAAAGTACATTCTTTATCACATAA [XGTACX_site6731]”, the “gcPBM binding intensity (ln)” value is 9.05. “CACACGCACAAAAACACACACAAAGGTGTTCTTATA [CACACA_site6724]”: the “gcPBM binding intensity (ln)” value was 9.64. Turning to “TTATTTTTTTTTTTTCGTACTTATTTATCTTGGTAT [XGTACX_site78]”, the “gcPBM binding intensity (ln)” value turned out to be 9.37. Consider “TATATATATATATATGGTACAGTTTATGCCTTTTAA [XGTACX_site6695]”, for which the “gcPBM binding intensity (ln)” value amounted to 9.14. For the sequence ATTTTCATGATAAAGGTGCAATTATTTTTATAAGAA, the “gcPBM binding intensity (ln)” value was 9.01. Consider “TATAATATATACAAATGTACATATATATATATATAT [XGTACX_site4559]”, for which the “gcPBM binding intensity (ln)” value stood at 9.07. For the sequence “TTATTTATAATATATACACACTAACATTATTTATCC [CACACA_site4835]”, the “gcPBM binding intensity (ln)” value amounted to 9.4. For the sequence “ATATATATGTGAAAATCACACATTGCTTATCTGTAA [CACACA_site6044]”, the “gcPBM binding intensity (ln)” value turned out to be 9.14.

For “TGTTTTATTATTTATAGTACATAAAAAAATATTGTA [XGTACX_site8963]”, the “gcPBM binding intensity (ln)” value is 9.06.
